From the RNAGym collection of RNA variant scans (doi:10.1093/nar/gkz1192)
The source gives no read counts; variants with many changes may rest on few reads.

B1: CPEB3 Ribozyme (parent)
chain: UAACAGGGGGCCACAGCAGAAGCGUUCACGUCGCAGCCCCUGUCAGAUUCUGGUGAAUCUGCGAAUUCUGCUGUAUAUCUC

Variants of: B1
Assay: self-cleavage, relative activity (ratio to wild type); higher = more cleavage; in vitro, sequencing
Method in brief: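 For each CPEB3 ribozyme variant, relative activity is its cleaved/total read fraction divided by the unmutated ribozyme's. Barcoded error-prone PCR libraries were transcribed by T7 RNA polymerase (5 hours, 37°C) and held in DNase I for 15 min before an EDTA stop, with cleavage occurring throughout. Template-switching reverse transcription and Illumina sequencing were used to read the RNAs. A 5-read minimum applied, and results are the mean of three batches.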

Row | Variant | self-cleavage
1 | UAACAGGGAGCCACAGCAGAAGCGCUCACGUCGCAGCCCCCGUCAGAUUCUGGUGAAUCUGCGUAUUCUGCUGUAUAUCUU [G9A U25C U41C A64U C81U] | 0.05
2 | UAACAGGGAGCCACAGCAGAAGCGCUCACGUCGCAGCCCCUGUCAGAUUCUGGUGAAUCGGCGAAUUCUGCCGUAUAUCUC [G9A U25C U60G U72C] | 0.3
3 | UAACAGGGAGCCACAGCAGAAGCGCUCACGUCGCAGCCCCUGUCAGAUUCUGGUGAAUCUGCGAAUUCAGCUGUAUAUCUC [G9A U25C U69A] | 0.22
4 | UAACAGGGAGCCACAGCAGAAGCGCUCACGUCGCAGCCCCUGUCAGAUUCUGGUGAAUCUGCGAAUUCCGCUGUAUAGCUC [G9A U25C U69C U78G] | 0.12
5 | UAACAGGGAGCCACAGCAGAAGCGUACGCGUCGCAGCCCCUGUCAGAUUCUGGUGAGUCUGCGAAUUCUGCUGUAUAUCUC [G9A U26A A28G A57G] | 0.16
6 | UAACAGGGAGCCACAGCAGAAGCGUACACGUCGCAGCCCCUGUCGGAUUCUGGUGAAUGUGCGAAUUCUGCUGUAUAUCUC [G9A U26A A45G C59G] | 0.05
7 | UAACAGGGAGCCACAGCAGAAGCGUACACGUCGCAGCCCCAGUCAGAUACUGGUGAAUCUGCGAAUUCUGCUGUAUAUCUC [G9A U26A U41A U49A] | 0.04
8 | UAACAGGGAGCCACAGCAGAAGCGUACACGUCGCAGCCCCUGUCAGAUUCCGGUGAAUCUGCGAAUUCUGCUGUAUAUCUC [G9A U26A U51C] | 0.23
9 | UAACAGGGAGCCACAGCAGAAGCGUACACGUCGCAGCCCCUGUCAGAUUCUGGUGAAACUGCGAAUUCUGCUGUAUAUCUC [G9A U26A U58A] | 0.14
10 | UAACAGGGAGCCACAGCAGAAGCGUACACGUCGCAGCCCCUGUCAGAUUCUGGUGAAUCUGCGAAUUCUGCUGUAUAUCCC [G9A U26A U80C] | 0.27
11 | UAACAGGGAGCCACAGCAGAAGCGUCCACGUCGCUGCCCCUGUCAGUUUCUGGUGGACCUGCGAAUUCUGCUGUAUAUCCC [G9A U26C A35U A47U A56G U58C U80C] | 0.04
12 | UAACAGGGAGCCACAGCAGAAGCGUCCACGUCGCAGCCCCUGUCAGAUUCUGGUGAAUCUGCGAAUUCUGCUGUGUAUCUC [G9A U26C A75G] | 0.2
13 | UAACAGGGAGCCACAGCAGAAGCGUCCACGUAGCAGCCCCUGUCAGAUUCAGGUGAAUCUGCGGAUUCUGCUGUAUAUCUC [G9A U26C C32A U51A A64G] | 0.05
14 | UAACAGGGAGCCACAGCAGAAGCGUCCACAUCGCAGCCCCUGUCAGGUUCUGGUGAGACUGCGAAUUCUGCUGUAUGUCUC [G9A U26C G30A A47G A57G U58A A77G] | 0.04
15 | UAACAGGGAGCCACAGCAGAAGCGUCCACGUCGCAGCCCCUGUCAGAUUCUGGAGAAUCUGCGAAUUCUGCUGUAUAUCUC [G9A U26C U54A] | 0.21
16 | UAACAGGGAGCCACAGCAGAAGCGUCCACGUCGCAGCCCCUGUCAGAUUCUGGUGAAUCUGCGAAUUCUGCUGUAUACCUC [G9A U26C U78C] | 0.26
17 | UAACAGGGAGCCACAGCAGAAGCGUGCUCGUCGCGGCCCCUGUCAGAUUCUGGUGAAUCUGCGAGUUCUGCCGUAUAUCUC [G9A U26G A28U A35G A65G U72C] | 0.07

Row | Variant | self-cleavage
18 | UAACAGGGAGCCACAGCAGAAGCGUUCACGACGCAGCCCCUGUCAGGUUCUGGUGAAUCUGCGAAUUCUGCAGUAUAUCUC [G9A U31A A47G U72A] | 0.21
19 | UAACAGGGAGCCACAGCAGAAGCGUUCACGACGCAGCCCCUGUCAGAUUCUGGUGAGUCUGCGAAUUCUGCUGUAUAUCUC [G9A U31A A57G] | 0.18
20 | UAACAGGGAGCCACAGCAGAAGCGUUCACGCCGCUGCCCCUGUCAGAUUCUGGUGGAUCUGCGAAUCCUGCUGUAUAACUC [G9A U31C A35U A56G U67C U78A] | 0.04
21 | UAACAGGGAGCCACAGCAGAAGCGUUCACGCCGCAGCCCCUGUCUGAUUCUGGUGAAUCUGCGGAUUCUGCUGUAUAUCUC [G9A U31C A45U A64G] | 0.07
22 | UAACAGGGAGCCACAGCAGAAGCGUUCACGCCGCAGCCCCUGUCAGAUUCUGGUGAAUCUGCGAAUUCUGCUGUAUGUCUC [G9A U31C A77G] | 0.31
23 | UAACAGGGAGCCACAGCAGAAGCGUUCACGGCGCAGCCCCUGUCAGAUUCUGGUGAAUCUGCGAAUUCUGCUGCAUAUCUC [G9A U31G U74C] | 0.08
24 | UAACAGGGAGCCACAGCAGAAGCGUUCACGUCGCAGCCCCAGUCUGAUUCUGGUGAAUCUGCGAACUCUGCUGUAUAUCUC [G9A U41A A45U U66C] | 0.04
25 | UAACAGGGAGCCACAGCAGAAGCGUUCACGUCGCAGCCCCAGUCAGAUUCUGGUGAAUCUCCGAAUUCUGCGGUAUAUCUC [G9A U41A G61C U72G] | 0.08
26 | UAACAGGGAGCCACAGCAGAAGCGUUCACGUCGCAGCCCCAGUCAGAUUCUGGUGAAUCCGCGGAUUCUGCUGUAUAUCUC [G9A U41A U60C A64G] | 0.04
27 | UAACAGGGAGCCACAGCAGAAGCGUUCACGUCGCAGCCCCAGUCAGAUUCUGGUGAAUCUGCGAAGUCUGCUGUAUACCUC [G9A U41A U66G U78C] | 0.08
28 | UAACAGGGAGCCACAGCAGAAGCGUUCACGUCGCAGCCCCCGUCUGACUCUGGUGAUUCUGCGAAUCCUGCUGCAUAUCUC [G9A U41C A45U U48C A57U U67C U74C] | 0.03
29 | UAACAGGGAGCCACAGCAGAAGCGUUCACGUCGCAGCCCCCGUCAGGUUCUGGUGAAUCUGCGAAUUCUGCUGUACAUCUC [G9A U41C A47G U76C] | 0.14
30 | UAACAGGGAGCCACAGCAGAAGCGUUCACGUCGCAGCCCCCGUCAGUUUCUGGUGAAUCCGCGAAUCCUGCCGUAUAUCUC [G9A U41C A47U U60C U67C U72C] | 0.09
31 | UAACAGGGAGCCACAGCAGAAGCGUUCACGUCGCAGCCCCCGUCAGAUUCUGAUGAAUCUGCGAGUUCAGCUGUAUAUCUC [G9A U41C G53A A65G U69A] | 0.1
32 | UAACAGGGAGCCACAGCAGAAGCGUUCACGUCGCAGCCCCCGACAGAUUCUGGUGAAUCUGCGAAUUCCGCUGUAUAUCUC [G9A U41C U43A U69C] | 0.06
33 | UAACAGGGAGCCACAGCAGAAGCGUUCACGUCGCAGCCCCCGUCAGAUACUCGCGGAUCUGCGAAUUCUGCUGUAUAUCUC [G9A U41C U49A G52C U54C A56G] | 0.06
34 | UAACAGGGAGCCACAGCAGAAGCGUUCACGUCGCAGCCCCGGUCAGAUUCUGAAGGAUCUGCGAAUUCUGCUGUAUAUCUC [G9A U41G G53A U54A A56G] | 0.37
